# Results from the supplement of paper PMC8728848.
# The other results are listed elsewhere or left out.
# B1: Regenerating Gene I (Homo sapiens), P05451 (protein)
# chain: MAQTSSYFMLISCLMFLSQSQGQEAQTELPQARISCPEGTNAYRSYCYYFNEDRETWVDADLYCQNMNSGNLVSVLTQAEGAFVASLIKESGTDDFNVWIGLHDPKKNRRWHWSSGSLVSYKSWGIGAPSSVNPGYCVSLTSSTGFQKWKDVPCEDKFSFVCKFKN
# Assays:
# Experiment in all cases: glycan array binding signal (z-score within array); higher = stronger binding
# Conditions in all cases: glycan notation: IUPAC condensed, linker removed
# [1] = target: Gal(b1-3)[Fuc(a1-4)]GlcNAc(b1-3)Gal(b1-4)[Fuc(a1-3)]GlcNAc
# How it was run: (§1)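 The binding signal is a Z-score computed within each array. Data were drawn from 3228 arrays in the Consortium for Functional Glycomics database, restricted to those with a known protein sequence. Scores were averaged over arrays of the same protein sequence at different concentrations or buffers, and over linkers, and negative values can be taken as non-binding.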
# [2] = target: Gal(b1-3)[GlcNAc(b1-6)]GalNAc
# How it was run: as §1
# [3] = target: Gal(b1-3)[Neu5Ac(a2-6)]GalNAc
# How it was run: as §1
# [4] = target: Gal(b1-3)[Neu5Ac(a2-6)]GlcNAc(b1-6)Gal(b1-4)Glc
# How it was run: as §1
# [5] = target: Gal(b1-3)[Neu5Ac(b2-6)]GalNAc
# How it was run: as §1
# [6] = target: Gal(b1-4)GalNAc(a1-3)[Fuc(a1-2)]Gal(b1-4)GlcNAc
# How it was run: as §1
# [7] = target: Gal(b1-4)GalNAc(b1-3)[Fuc(a1-2)]Gal(b1-4)GlcNAc
# How it was run: as §1
# Gal(b1-4)Glc = target: Gal(b1-4)Glc
# How it was run: as §1
# Gal(b1-4)Glc6S = target: Gal(b1-4)Glc6S
# How it was run: as §1
# Gal(b1-4)GlcNAc = target: Gal(b1-4)GlcNAc
# How it was run: as §1
# [8] = target: Gal(b1-4)GlcNAc(a1-6)Gal(b1-4)GlcNAc
# How it was run: as §1
# [9] = target: Gal(b1-4)GlcNAc(b1-2)Man(a1-3)[Gal(b1-4)GlcNAc(b1-2)Man(a1-6)]Man(b1-4)GlcNAc(b1-4)GlcNAc
# How it was run: as §1
# [10] = target: Gal(b1-4)GlcNAc(b1-3)Gal(b1-3)GlcNAc
# How it was run: as §1
# [11] = target: Gal(b1-4)GlcNAc(b1-3)Gal(b1-4)Glc
# How it was run: as §1
# [12] = target: Gal(b1-4)GlcNAc(b1-3)Gal(b1-4)GlcNAc
# How it was run: as §1
# [13] = target: Gal(b1-4)GlcNAc(b1-3)Gal(b1-4)GlcNAc(b1-3)Gal(b1-4)GlcNAc
# How it was run: as §1
# [14] = target: Gal(b1-4)GlcNAc(b1-3)Gal(b1-4)[Fuc(a1-3)]GlcNAc(b1-3)Gal(b1-4)[Fuc(a1-3)]GlcNAc
# How it was run: as §1
# [15] = target: Gal(b1-4)GlcNAc(b1-3)GalNAc
# How it was run: as §1
# [16] = target: Gal(b1-4)GlcNAc(b1-3)[Gal(b1-4)GlcNAc(b1-6)]Gal(b1-4)GlcNAc
# How it was run: as §1
# [17] = target: Gal(b1-4)GlcNAc(b1-3)[GlcNAc(b1-6)]Gal(b1-4)GlcNAc
# How it was run: as §1
# [18] = target: Gal(b1-4)GlcNAc(b1-6)Gal(b1-4)GlcNAc
# How it was run: as §1
# [19] = target: Gal(b1-4)GlcNAc(b1-6)Gal(b1-4)GlcNAc(b1-6)GalNAc
# How it was run: as §1
# [20] = target: Gal(b1-4)GlcNAc(b1-6)GalNAc
# How it was run: as §1
# [21] = target: Gal(b1-4)GlcNAc(b1-6)[Gal(b1-3)]GalNAc
# How it was run: as §1
# Gal3S(b1-3)GalNAc = target: Gal3S(b1-3)GalNAc
# How it was run: as §1
# Gal3S(b1-3)GlcNAc = target: Gal3S(b1-3)GlcNAc
# How it was run: as §1
# [22] = target: Gal3S(b1-3)[Fuc(a1-4)]GlcNAc
# How it was run: as §1
# Gal3S(b1-4)Glc = target: Gal3S(b1-4)Glc
# How it was run: as §1
# Gal3S(b1-4)Glc6S = target: Gal3S(b1-4)Glc6S
# How it was run: as §1
# Gal3S(b1-4)GlcNAc = target: Gal3S(b1-4)GlcNAc
# How it was run: as §1
# Gal3S(b1-4)GlcNAc6S = target: Gal3S(b1-4)GlcNAc6S
# How it was run: as §1
# [23] = target: Gal3S(b1-4)[Fuc(a1-3)]Glc
# How it was run: as §1
# Gal3S4S(b1-4)GlcNAc = target: Gal3S4S(b1-4)GlcNAc
# How it was run: as §1
# Gal3S6S(b1-4)GlcNAc = target: Gal3S6S(b1-4)GlcNAc
# How it was run: as §1
# Gal3S6S(b1-4)GlcNAc6S = target: Gal3S6S(b1-4)GlcNAc6S
# How it was run: as §1
# Gal4S(b1-4)GlcNAc = target: Gal4S(b1-4)GlcNAc
# How it was run: as §1
# Gal4S6S(b1-4)GlcNAc = target: Gal4S6S(b1-4)GlcNAc
# How it was run: as §1
# Gal6S(b1-4)Glc = target: Gal6S(b1-4)Glc
# How it was run: as §1
# Gal6S(b1-4)Glc6S = target: Gal6S(b1-4)Glc6S
# How it was run: as §1
# Gal6S(b1-4)GlcNAc = target: Gal6S(b1-4)GlcNAc
# How it was run: as §1
# Gal6S(b1-4)GlcNAc6S = target: Gal6S(b1-4)GlcNAc6S
# How it was run: as §1
# GalNAc(a1-3)Gal = target: GalNAc(a1-3)Gal
# How it was run: as §1
# GalNAc(a1-3)GalNAc = target: GalNAc(a1-3)GalNAc
# How it was run: as §1
# GalNAc(b1-3)Gal = target: GalNAc(b1-3)Gal
# How it was run: as §1
# [24] = target: GalNAc(b1-3)Gal(a1-4)Gal(b1-4)GlcNAc
# How it was run: as §1
binder,measurement,setting,value
B1,glycan array binding signal (z-score),[1],1.41
same,glycan array binding signal (z-score),[2],-0.443
same,glycan array binding signal (z-score),[3],0.064
same,glycan array binding signal (z-score),[4],-0.384
same,glycan array binding signal (z-score),[5],-0.082
same,glycan array binding signal (z-score),[6],-0.474
same,glycan array binding signal (z-score),[7],0.083
same,glycan array binding signal (z-score),Gal(b1-4)Glc,-0.165
same,glycan array binding signal (z-score),Gal(b1-4)Glc6S,0.447
same,glycan array binding signal (z-score),Gal(b1-4)GlcNAc,-0.257
same,glycan array binding signal (z-score),[8],0.071
same,glycan array binding signal (z-score),[9],-0.323
same,glycan array binding signal (z-score),[10],-0.384
same,glycan array binding signal (z-score),[11],-0.273
same,glycan array binding signal (z-score),[12],-0.273
same,glycan array binding signal (z-score),[13],-0.53
same,glycan array binding signal (z-score),[14],-0.384
same,glycan array binding signal (z-score),[15],0.002
same,glycan array binding signal (z-score),[16],-0.248
same,glycan array binding signal (z-score),[17],-0.45
same,glycan array binding signal (z-score),[18],-0.417
same,glycan array binding signal (z-score),[19],-0.332
same,glycan array binding signal (z-score),[20],-0.261
same,glycan array binding signal (z-score),[21],-0.229
same,glycan array binding signal (z-score),Gal3S(b1-3)GalNAc,-0.486
same,glycan array binding signal (z-score),Gal3S(b1-3)GlcNAc,-0.149
same,glycan array binding signal (z-score),[22],-0.224
same,glycan array binding signal (z-score),Gal3S(b1-4)Glc,0.272
same,glycan array binding signal (z-score),Gal3S(b1-4)Glc6S,0.631
same,glycan array binding signal (z-score),Gal3S(b1-4)GlcNAc,-0.278
same,glycan array binding signal (z-score),Gal3S(b1-4)GlcNAc6S,1.1
same,glycan array binding signal (z-score),[23],-0.027
same,glycan array binding signal (z-score),Gal3S4S(b1-4)GlcNAc,0.222
same,glycan array binding signal (z-score),Gal3S6S(b1-4)GlcNAc,0.582
same,glycan array binding signal (z-score),Gal3S6S(b1-4)GlcNAc6S,0.769
same,glycan array binding signal (z-score),Gal4S(b1-4)GlcNAc,0.291
same,glycan array binding signal (z-score),Gal4S6S(b1-4)GlcNAc,0.545
same,glycan array binding signal (z-score),Gal6S(b1-4)Glc,-0.067
same,glycan array binding signal (z-score),Gal6S(b1-4)Glc6S,0.787
same,glycan array binding signal (z-score),Gal6S(b1-4)GlcNAc,-0.094
same,glycan array binding signal (z-score),Gal6S(b1-4)GlcNAc6S,0.952
same,glycan array binding signal (z-score),GalNAc(a1-3)Gal,1.27
same,glycan array binding signal (z-score),GalNAc(a1-3)GalNAc,-0.588
same,glycan array binding signal (z-score),GalNAc(b1-3)Gal,0.483
same,glycan array binding signal (z-score),[24],0.085
